Results on 89 molecules are retold here after publication PMC4336329 (PLoS ONE, 2015).

Among all 310,000 compounds or so, about 2,200 (0.71%) showed an effect of 50% or more. Effects have a minus sign here. The list shows a part of the results.

The target of this test is human ether-à-go-go-related gene (hERG) potassium channel (human, UniProt Q12809). The test can be described thus: primary screen, population patch clamp on CHO cells stably expressing hERG.
human ether-à-go-go-related gene (hERG) potassium channel, sequence (Q12809 whole entry, looked up): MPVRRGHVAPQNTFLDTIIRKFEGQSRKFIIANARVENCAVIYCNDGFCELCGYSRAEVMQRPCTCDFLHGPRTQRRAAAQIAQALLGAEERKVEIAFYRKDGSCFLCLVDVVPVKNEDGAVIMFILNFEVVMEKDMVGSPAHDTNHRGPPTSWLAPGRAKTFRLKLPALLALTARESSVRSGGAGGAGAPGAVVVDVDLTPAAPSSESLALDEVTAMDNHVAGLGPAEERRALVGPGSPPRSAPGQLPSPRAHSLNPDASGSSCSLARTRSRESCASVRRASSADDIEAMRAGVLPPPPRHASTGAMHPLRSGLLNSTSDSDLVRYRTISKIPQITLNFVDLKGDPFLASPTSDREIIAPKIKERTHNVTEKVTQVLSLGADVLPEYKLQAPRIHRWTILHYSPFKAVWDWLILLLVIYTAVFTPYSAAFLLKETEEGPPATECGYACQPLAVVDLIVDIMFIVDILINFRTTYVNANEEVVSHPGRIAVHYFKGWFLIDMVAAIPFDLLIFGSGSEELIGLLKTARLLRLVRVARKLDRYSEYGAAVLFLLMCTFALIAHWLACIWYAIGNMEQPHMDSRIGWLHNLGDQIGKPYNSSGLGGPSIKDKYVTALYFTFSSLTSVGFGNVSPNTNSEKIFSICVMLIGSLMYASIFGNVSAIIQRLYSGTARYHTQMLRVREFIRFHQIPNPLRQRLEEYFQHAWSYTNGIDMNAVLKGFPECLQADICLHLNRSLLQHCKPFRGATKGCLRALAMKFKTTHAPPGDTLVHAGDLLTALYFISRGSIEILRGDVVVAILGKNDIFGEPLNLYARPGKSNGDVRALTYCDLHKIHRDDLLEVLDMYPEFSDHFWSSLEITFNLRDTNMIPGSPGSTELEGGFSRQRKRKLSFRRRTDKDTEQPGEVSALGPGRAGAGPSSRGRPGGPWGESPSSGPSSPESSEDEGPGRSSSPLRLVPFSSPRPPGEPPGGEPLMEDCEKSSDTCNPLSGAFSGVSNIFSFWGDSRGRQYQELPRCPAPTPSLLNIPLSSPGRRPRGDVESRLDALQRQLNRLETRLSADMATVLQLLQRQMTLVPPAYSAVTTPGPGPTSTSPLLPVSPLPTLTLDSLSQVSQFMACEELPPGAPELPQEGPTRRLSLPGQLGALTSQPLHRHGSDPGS
As for `CCN(CCCCCCN)c1ccc2c(=O)[nH][nH]c(=O)c2c1`, the “hERG current change (%, negative = inhibition) at 1uM” value is 9.15%.
Under `O=C(NCSc1ccncn1)c1ccccc1` stands 13.1%; under `COc1ccc(-n2nc([N+](=O)[O-])c(=NCCc3ccc(Cl)cc3)n2O)cc1`, 11.1%.
Under `C#CCOc1ccccc1C(N)=O` stands 14%; under `O=C(NC1CCCCCC1)c1ccccc1-c1ccccc1`, -3.35%; under `COCc1cc(=O)[nH]c2cc(NC(=O)c3cccc(OC)c3)c(C)cc12`, 15.7%.
Under `CCCCC(=O)Nc1ccc(NC(=O)C2CC2)cn1` stands 13.6%.
In the case of `CN(CC(=O)NCCN1CCN(Cc2ccccc2)CC1)S(=O)(=O)c1cccc2nsnc12`, the “hERG current change (%, negative = inhibition) at 1uM” value turned out to be 2.04%.
As to `CCOC(=O)C(C)(C)Sc1nc2c(cnn2-c2ccc(C)cc2)c(=O)[nH]1`, the “hERG current change (%, negative = inhibition) at 1uM” value turned out to be 5%.
For `O=C(NC(O)C(=O)c1ccc(F)cc1)c1ccc(F)cc1` (centres unmarked), the “hERG current change (%, negative = inhibition) at 1uM” value is given as 9.08%.
For `COc1cccc(CNC(=O)C2CCN(C(=O)N(C)C)CC2)c1`, the “hERG current change (%, negative = inhibition) at 1uM” value is 10.9%.
Under `CCO/N=C(/C)c1c(O)c(C)c(-c2ccccc2)n(-c2ccccc2)c1=O` stands 12.9%.
`COc1ccc(N2CCN(C(=S)Nc3ccc(C)cc3)CC2)cc1`: the “hERG current change (%, negative = inhibition) at 1uM” value was 10.4%.
Under `Cc1ccc(/C=C/C(=O)NC2CCCCCCC2)o1` stands 3.27%.
The value for `CCOc1cc(/C=N/O)cc(Br)c1OCC(=O)NCc1ccccc1` was 13%.
The value for `Cc1oc(-c2ccc(Cl)cc2)cc1-c1nn2c(-c3ccoc3C)nnc2s1` was 2.41%; that for `CCOC(=O)C(C)Sc1nnc(NC(=O)c2ccc3c(c2)OCO3)s1` (centres unmarked) was 7.77%.
On to `CCOC(=O)C1=C(C)N(CCCC(=O)O)C(=O)NC1c1cc2ccccc2c2ccccc12` (centres unmarked), for which the “hERG current change (%, negative = inhibition) at 1uM” value amounted to 5.67%.
Under `CC(C)NC(=O)c1ccc2c3n(nc2c1)-c1ccc(Cl)cc1CO3` stands 19.3%; under `COc1ccc(S(=O)(=O)n2oc(=O)cc2-c2ccccc2)cc1OC`, 2.75%.
On to `Cc1ccc(/C(O)=C2/C(=O)C(=O)N(c3ccccn3)C2c2ccc([N+](=O)[O-])cc2)cc1` (centres unmarked), for which the “hERG current change (%, negative = inhibition) at 1uM” value came to 5.28%.
`Br.CCCCCCn1ccc(=N)cc1`: the “hERG current change (%, negative = inhibition) at 1uM” value is on record as 7.68%.
The value for `COc1ccc(Nc2nc(-c3cccnc3)cs2)c(OC)c1` was 7.06%; that for `Cc1noc(C)c1S(=O)(=O)NCc1ccc(CN(C)C)cc1.Cl` was 11%.
Under `O=C(Nc1ccc2c(c1)OCCO2)c1cc(-n2cnnc2)ccc1Cl` stands 3.58%; under `COc1ccc(C(=O)NCCc2nnc(SCC(=O)Nc3ccccc3)n2C)cc1`, 8.61%; under `Cn1c(=O)n(C)c2cc(S(=O)(=O)Nc3ccccc3O)ccc21`, -5.52%.
The value for `CC1Sc2ccc(S(=O)(=O)N3CCC(C(N)=O)CC3)cc2NC1=O` (centres unmarked) was 20.7%; that for `Cc1cc(C(=O)Nc2nc3ccc(S(C)(=O)=O)cc3s2)c(C)o1` was 2.88%.
As for `Cc1ccccc1C(=O)Nc1ccccc1N1CCCCC1`, the “hERG current change (%, negative = inhibition) at 1uM” value worked out at 17.4%.
Under `CCCN1C(=O)/C(=C/c2ccc(C)o2)SC1=Nc1ccc(OCC)cc1` stands 6.08%.
The value for `COCCOC(=O)c1c(C)oc2ccc(OC(=O)COc3c(F)c(F)c(F)c(F)c3F)cc12` was 4.77%; that for `C=C(C)C(=O)Nc1cccc(C2=NOC3(C2)C[C@@H](C(N)=O)N(C(=O)C(=C)C)C3)c1` (some centres unmarked) was 11.1%.
Under `OCCC1CN(Cc2ccc(F)cc2Cl)CCN1CCc1ccccc1` (centres unmarked) stands -34.2%.
With `CCc1cccc2c(C(=O)CN3C(=O)NC4(CCc5ccccc54)C3=O)c[nH]c12` (centres unmarked), the “hERG current change (%, negative = inhibition) at 1uM” value was 15%.
For the molecule `COc1ccc(OC)c(N(CC(=O)NC2CCCC2)S(=O)(=O)c2ccc(OC)c(OC)c2)c1`, the “hERG current change (%, negative = inhibition) at 1uM” value is -8.06%.
Take `O=C(/C=C/c1ccc(S(=O)(=O)N2CCOCC2)cc1)NCc1ccc(Cl)cc1`: the “hERG current change (%, negative = inhibition) at 1uM” value is -21.5%.
For `Cc1c(C)c2ccc(OC(C)C(=O)NCCN3CCOCC3)c(C)c2oc1=O` (centres unmarked), the “hERG current change (%, negative = inhibition) at 1uM” value turned out to be 14.8%.
The value for `Cc1cccc(-c2noc(-c3ccccc3C(=O)NCc3ccco3)n2)c1` was 1.35%; that for `Cc1c(C)c2cc(Cl)c(O)c(CN(C)C)c2oc1=O` was 15.4%.
Under `O=C(/C=C/c1ccccc1)N/C(=C\c1ccco1)C(=O)O` stands 14.2%; under `Cc1ccc2cc(C3CC(c4ccco4)=NN3C(=O)CCCC(=O)O)c(Cl)nc2c1` (centres unmarked), 2.86%.
Take `Cc1ccc(C(=O)NCC(=O)OCC(=O)c2ccc3c(c2)NC(=O)CO3)cc1`: the “hERG current change (%, negative = inhibition) at 1uM” value is -11%.
Regarding `Clc1ccc(COc2ccccn2)cc1Cl`, the “hERG current change (%, negative = inhibition) at 1uM” value turned out to be 3.38%.
The value for `O=C(NC1CCCc2ccccc21)C1CCCO1` (centres unmarked) was 10.6%; that for `COc1cccc(C(C(=O)NCC2CCCO2)N(C(=O)Cn2nnc3ccccc32)c2ccccc2C(C)=O)c1OC` (centres unmarked) was 15.6%; that for `CCOC(=O)C1(CC2CC2)CCN(Cc2cnc(N(C)C)s2)CC1` was 3.01%.
The value for `Cc1sc2nc(C(C)C)nc(SCC(=O)N3CCN(C(=O)c4ccco4)CC3)c2c1C` was -41.5%; that for `Cn1cc(-c2ccccc2)cc(C#N)c1=O` was 10.2%.
Under `COc1ccccc1NC(=O)CSc1nccc(-c2ccco2)n1` stands 10.2%; under `O=C(Nc1ccc(F)cc1F)C1(c2cccs2)CCOCC1`, 12.7%; under `COc1ccc(/C=C2/C(=O)N(c3ccccc3)N=C2C)cc1`, 16%.
As for `COC(=O)CN(C(=O)CSc1nnc(-c2cccc(OC)c2)o1)c1ccc(OC)cc1`, the “hERG current change (%, negative = inhibition) at 1uM” value stood at 0.674%.
The value for `Br.CC1CC(C)CN(CC(=O)c2ccc(OC(F)F)cc2)C1` (centres unmarked) was -96.1%; that for `CCOC(=O)c1sc(NC(=O)CCN2CC(C)OC(C)C2)c(C(=O)OCC)c1C.O=C(O)C(=O)O` (centres unmarked) was 14.5%; that for `CC(C)c1onc(C(=O)N(C)Cc2ccccc2)c1[N+](=O)[O-]` was -0.336%.
The value for `Cc1ccc(NC(=O)Cc2n[nH]c(=S)n2C)cc1` was 11.5%.
The value for `COCC1CCCC1OS(N)(=O)=O` (centres unmarked) was 1.23%; that for `Cc1ccc(S(=O)(=O)N2CCCCC2)c(C)c1NS(C)(=O)=O` was 10.6%.
In the case of `Cc1ncc([N+](=O)[O-])n1Cc1ccc(Cl)cc1`, the “hERG current change (%, negative = inhibition) at 1uM” value worked out at 1.88%.
Under `CC1CCN(C(=O)COc2cccc3c2CCN(C)C3=O)CC1` stands 8.37%.
The value for `O=C(CCn1c(=O)oc2ccccc21)N1CCCCCC1` was 5.22%.
As to `CN(CC(=O)Nc1cccc(F)c1)C(=O)CN1C(=O)C2CC=CCC2C1=O` (centres unmarked), the “hERG current change (%, negative = inhibition) at 1uM” value is recorded as -4.22%.
Regarding `N#CCCn1nc(-c2ccc(Cl)cc2)cc1Nc1ccccc1NC(=O)C(F)(F)F`, the “hERG current change (%, negative = inhibition) at 1uM” value was 9.25%.
Under `CCCn1ncc(CN2CCN(Cc3ccc(C)o3)C(CCO)C2)c1C` (centres unmarked) stands 4.23%.
As for `CC(C)(C)NCC(O)CON=C1c2ccccc2-c2ccccc21` (centres unmarked), the “hERG current change (%, negative = inhibition) at 1uM” value is reported as 9.88%.
Under `Cc1cc(C(=O)N/N=C2\CCCC(=O)C2)c2ccccc2n1` stands 0.574%; under `COc1ccc(C(C)(C)C)cc1NC(=O)c1cccc(S(=O)(=O)N2CCN(C(C)=O)CC2)c1`, 13.5%; under `O=C1CSC(c2ccccn2)N1c1cccc(Cl)c1` (centres unmarked), 9.69%.
In the case of `COc1cccc(OC)c1C(=O)Nc1ccc2c(c1)OCCO2`, the “hERG current change (%, negative = inhibition) at 1uM” value is listed as 8.4%.
With `COc1ccc(-n2c(SCC(=O)c3c(N)n(C)c(=O)n(C)c3=O)nc3ccccc32)cc1`, the “hERG current change (%, negative = inhibition) at 1uM” value is reported as 12%.
The value for `CC(=O)Nc1ccc(Nc2ccc([N+](=O)[O-])cn2)cc1` was 3.5%.
For the molecule `CC(=O)Nc1cccc(/C(C)=N/NC(=O)c2cc(-c3ccncc3)nc3ccccc23)c1`, the “hERG current change (%, negative = inhibition) at 1uM” value is recorded as 5.58%.
As to `COCCNC(=O)c1cn(C)c2ccccc2c1=O`, the “hERG current change (%, negative = inhibition) at 1uM” value came to 17.9%.
The value for `CC1(C)CC(=O)c2cc(C(=O)NC3CCSC3=O)c(=O)n(-c3ccc(Cl)cc3)c2C1` (centres unmarked) was 7.79%; that for `O=C(c1ccco1)N1CCN(C(c2ccccc2F)c2nnnn2Cc2cccs2)CC1` (centres unmarked) was 4.73%.
Under `CNS(=O)(=O)c1ccc2nc(NC(=O)/C=C/c3ccco3)sc2c1` stands 8.11%.
As for `CCOC(=O)C1(Cc2ccc(OC)cc2)CCN(C(=O)C2CCCO2)CC1` (centres unmarked), the “hERG current change (%, negative = inhibition) at 1uM” value amounted to 5%.
The value for `CSc1nc(C)c2cc(C)oc2n1` was 6.8%; that for `O=C(O)C1CC(=O)N(C2CCCCCC2)C1` (centres unmarked) was 7.79%; that for `CC1(C)CC(=O)C2=C(C1)c1c(ccc3ccccc13)NC2c1cc([N+](=O)[O-])cc([N+](=O)[O-])c1O` (centres unmarked) was 13.8%.
The value for `CCOCCOC(=O)C1=C(C)NC(=O)NC1c1cc2c(cc1Br)OCO2` (centres unmarked) was -37.4%.
In the case of `CC(=O)c1cccc(NC(=O)N2CCCC2C(=O)NCc2ccc3c(c2)OCO3)c1` (centres unmarked), the “hERG current change (%, negative = inhibition) at 1uM” value turned out to be 17.7%.
The value for `COc1ccc(C(=O)N/C(=C\c2cccc([N+](=O)[O-])c2)C(=O)Nc2cccc(C(=O)O)c2)cc1` was 4.12%.
The value for `Cc1cc(C(=O)NCCC(c2ccccc2)c2ccccc2)c(C)o1` was -2.51%.
The value for `CCCCOc1ccc(C(=O)NCC(=O)OCC(=O)N2CCN(S(=O)(=O)c3ccc(C)cc3C)CC2)cc1` was 5.53%; that for `O=C(c1cc2c(s1)CCCCC2)N1CCN(c2ncccn2)CC1` was 0.784%; that for `CN(C)c1cc(NC(=O)CNC(C)(C)C)c2ccccc2n1.O=C(O)C(=O)O` was 2.05%.
As for `CCOC(=O)N1CCC(N2CCN(S(=O)(=O)c3ccc(NC(C)=O)cc3)CC2)CC1.O=C(O)C(=O)O`, the “hERG current change (%, negative = inhibition) at 1uM” value is given as -1.69%.
